PubChem BioAssay AID1963576 (National Center for Advancing Translational Sciences (NCATS), 2024)
The whole screen tested about 46,000 compounds, of which about 60 (0.1%) were called active. About 3% were inconclusive and are not listed. The call rests on the fitted dose curve; in most records, active means well fitted inhibition curve with a large enough effect; inconclusive means small, poorly fitted or top-dose-only effect; inactive means no such curve, though single readings can be large or run the other way. This is one part of the list.

Test: Primary qHTS assay for Inhibitors of ovarian cancer metastasis using an organotypic tumor microenvironment (TME) model. Further: nearly all actives have a fitted effect of over 65% in size.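 On activity change, negative = inhibition: plate controls were DMSO wells for no effect and tomatine positive control wells for full effect.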
Settings: SKOV3ip1-GFP adhesion/invasion on 3D omental model, fluorescence; series mostly up to 45.8 µM; activity change, negative = inhibition: at the top concentration
Procedure, shortened: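 Primary human omental fibroblast/mesothelial 3D culture pre-formed 48 h. SKOV3ip1-GFP cells added with compounds (0.36-46 umol/L), incubated 2 h RT/16 h 37 C, fixed; GFP cells quantified at 488/509 nm.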

Activity change, negative = inhibition, inactive:
O=C(CSc1nncn2c1cc1occc12)Nc1ccc(F)c(Cl)c1 3.7%
O=C(NCCc1ccc(Cl)cc1)c1ccc2nc(CCc3ccccc3)oc2c1 4.59%
Cc1nc(S(=O)(=O)N2CCN(c3cccc(Cl)c3)CC2)cn1C -8.72%
COc1cc(Nc2nn(-c3ccc(OC(F)(F)F)cc3)nc2C(C)=O)cc(OC)c1 24.8%
O=C(CCCn1c(=O)[nH]c2ccc(Br)cc2c1=O)N1CCN(c2cccc(Cl)c2)CC1 36.9%
COc1cc(OC)cc(-n2c(=O)c3ccccc3n(Cc3ccccc3C#N)c2=O)c1 0.556%
CCOC(=O)c1cc(-c2ccc(OC)cc2)n(CCC(=O)Nc2cccc(C)c2C)c1C -18.3%
COc1cc(NC(=O)c2ccc(-c3nc(CSc4ccccc4)c(C)o3)cc2)cc(OC)c1 -6.85%
CCc1ccc(NC(=O)Cn2nc(C(F)(F)F)c3c2CCCC3)cc1 3.65%
CCC(=O)Nc1cc(-c2cn3cccnc3n2)ccc1OC -2.43%
COc1ccccc1Cc1nc2ccccc2nc1SCC(=O)Nc1c(C)cccc1C -14.8%
COc1ccc(NC(=O)c2cc(-c3ccc(F)cc3)no2)cc1OC -9.44%
Cc1c(Cl)cccc1NC(=O)Cn1c(=O)cc(C)c2c(C)nn(-c3cccc(F)c3)c21 5.92%
COc1ccc(N(CC(C)C)S(=O)(=O)c2nnc(NC(=O)c3ccco3)s2)cc1 -13.9%
O=C(Cn1ncn2cccc2c1=O)NCc1cccc(Br)c1 8.58%
CCN(C(=O)CCS(=O)(=O)c1cc2c(cc1C)NC(=O)CO2)c1cccc(C)c1 -6.26%
CCCNC(=O)Cn1nc(-c2ccc(C)cc2)c2cnc3ccc(CC)cc3c21 -3.28%
Cc1cc(NC(=O)c2ccco2)cc(-c2nc3ccccc3o2)c1O -5.09%
Cc1cccc(N2CCN(Cc3nnc(-c4cccc(Br)c4)o3)CC2)c1C 1.02%
CCc1ccc(-c2nc(CS(=O)CC(=O)NCc3ccc(F)cc3)c(C)o2)cc1 (stereo unspecified) -15.6%
Cc1ccc(CNS(=O)(=O)c2c(C)nc3sc(C)cn3c2=O)cc1 -11.8%
Cc1ccc(Cl)cc1NC(=O)CN1C(=O)c2ccccc2Sc2ncccc21 -1.99%
COc1ccccc1NC(=O)Cn1c(=O)oc2cc(S(=O)(=O)NCc3ccccc3)ccc21 2.55%
Clc1ccc2nc(-c3ccc(N4CCOCC4)cc3)c(Nc3ccccc3)n2c1 -1.22%
O=C(NCc1cccc(Cl)c1)C1CCCN(c2nn3cc(-c4ccc(F)cc4)nc3s2)C1 (stereo unspecified) 7.62%
CC(=O)c1ccc(NC(=O)c2nc(-c3ccccc3)n(-c3ccc(C)cc3)n2)cc1 0.955%
CCCOC(=O)c1cccc(NC(=O)CSc2nnc3cc(C)c4ccccc4n23)c1 -4.3%
CC1CCc2c(sc3nnn(Cc4ccccc4Cl)c(=O)c23)C1 (stereo unspecified) -2.52%
CCOc1ccc(S(=O)(=O)c2cc3cccc(OCC)c3oc2=O)cc1 6.27%
CCOc1ccc(CNc2cc(C)nc3nc(-c4cccc(C)c4)nn23)cc1OC 13.5%
Cc1cccc(NC(=O)c2ccc3oc(=O)c(S(=O)(=O)c4ccc(F)cc4)cc3c2)c1C 2.82%
CCc1ccccc1N(C)C(=O)c1nn(-c2ccc(OC)cc2)c(=O)c2c1c1ccccc1n2C -6.05%
COc1ccc(N2CCN(C(=O)c3cnc(N4CCOCC4)c4ccccc34)CC2)cc1 -2.83%
Cc1ccc(NCc2cc3cc4c(cc3n(CC(=O)Nc3ccc(C)cc3)c2=O)OCCO4)cc1 -12%
CCOc1ccccc1NCc1nnc2n1CCCCC2 -14.5%
CC(C)NC(=O)CSc1cn(CC(=O)N2CCCCCC2)c2ccccc12 -21.2%
CCCCn1c(SCC(=O)c2ccccc2)nc2sc3c(c2c1=O)CCCC3 1.04%
COc1ccccc1OCc1nc2ccccc2n1Cc1ccccc1 3.57%
Cc1ccc(S(=O)(=O)Nc2ccc(-c3ccc(N4CCCCCC4)nn3)cc2)c(C)c1 -0.939%
Cc1ccc(C)c(S(=O)(=O)c2nnn3c2nc(NC2CCCC2)c2sccc23)c1 2.17%
COc1ccc(C)cc1NC(=O)c1nnn(CC(=O)Nc2c(C)cccc2C)c1N -8.07%
Cc1cccc(C)c1NC(=O)C(=O)NCC(c1ccc2c(c1)OCO2)N1CCN(C)CC1 (stereo unspecified) -3.95%
COc1ccc(OC)c([C@@H]2Nc3ccc(C(=O)O)cc3[C@@H]3C=CC[C@@H]32)c1 3.03%
CSc1nnc(NC(=O)c2cc(=O)c3cc(C)c(C)cc3o2)s1 10.1%
Cc1ccc(S(=O)(=O)c2cn(Cc3ccccc3)c3cc(N4CCCC4)c(F)cc3c2=O)c(C)c1 27.4%
COc1ccc(CNC(=O)C(CC(C)C)NS(=O)(=O)c2ccc3c(c2)oc(=O)n3C)cc1 (stereo unspecified) 2.9%
CC(=O)c1ccc(NC(=O)CCn2cccn2)cc1 0.799%
Cc1ccc(Cn2c(=O)n(Cc3ccc(C(=O)NC4CCN(Cc5ccccc5)CC4)cc3)c(=O)c3ccccc32)cc1 -21.9%
COc1ccc(N(CC(=O)N2CCCCC2)S(=O)(=O)c2ccc(OC)c(OC)c2)cc1 -1.79%
Cc1ccc2oc(C(=O)N3CCC(c4nc5ccccc5s4)CC3)c(C)c2c1 5.8%
CCc1ccc(CNC(=O)c2cccc(-n3c(C)nc4cccnc43)c2)cc1 -7.22%
CCCc1ccc(OCc2ccc(C(=O)Nc3ccccc3C(=O)OC)o2)cc1 1.43%
Cc1ccc(-n2c(C)nc3c(cnn3-c3ccccc3)c2=O)cc1 -7.42%
CN1C(=O)Cc2cc(S(=O)(=O)NCc3ccccc3Cl)ccc21 1.34%
O=C(c1ccc(Br)cc1)N(Cc1ccco1)c1ccccn1 -0.114%
CO[C@H]1/C=C\O[C@@]2(C)Oc3c(C)c(O)c4c(O)c(c5c(nc6cc(C)ccn65)c4c3C2=O)NC(=O)C(C)=CC=C[C@H](C)[C@H](O)[C@@H](C)[C@@H](O)[C@@H](C)[C@H](OC(C)=O)[C@H]1C -15.4%
CCc1ccccc1NC(=O)CC1NCCNC1=O (stereo unspecified) -1.61%
Cc1cc(Nc2cc(CN3CCOCC3)c3nc(C)c(Cc4ccc(Cl)cc4F)n3n2)n[nH]1 -18.1%
O=C(C1CCC(CNS(=O)(=O)c2ccc(Br)s2)CC1)N1CCN(c2ccc(F)cc2)CC1 (stereo unspecified) -8.23%
O=C(Nc1cccc(Cl)c1)N1CC2CCCN2c2ccccc21 (stereo unspecified) -4.71%
CCOc1ccc(NC(=O)Cn2c(=O)n(CCCCC(=O)NCCc3ccc(Cl)cc3)c(=O)c3ccccc32)cc1 -5.65%
CCOc1ccc(C(=O)Nc2ccc3oc(-c4ccc(C)cc4C)nc3c2)cc1Br 3.07%
CCOc1ccccc1NC(=O)c1c2c(nc3ccccc13)C(=O)N(C1CCCCC1)C2 2.03%
COc1ccc(-c2nc3n(n2)C(c2ccccc2OC)C(C(=O)Nc2cccnc2)=C(C)N3)cc1 (stereo unspecified) -13.3%
Nc1nnc(-c2cccc(Cl)c2Cl)c(N)n1 -11.4%
CCOC(=O)N1CCc2c(sc(NCc3ccc(N(CC)CC)cc3)c2C(=O)Nc2cc(OC)ccc2OC)C1 1.75%
CCOc1ccc(-n2c(SCC(=O)NCc3ccccc3)nc3n[nH]c(C)c3c2=N)cc1 -7.37%
CCC1CN(C(=O)N2CCC(C(=O)N3CCN(c4ccccc4)CC3)CC2)c2ccccc2O1 (stereo unspecified) -17%
Cc1ccc(-n2c(=O)c3ccc(C(=O)NCc4ccco4)cc3n(CC(=O)Nc3ccc(C)c(F)c3)c2=O)cc1 3.38%
Cc1ccc(NS(=O)(=O)c2ccc3c(c2)N(C)C(=O)CC(=O)N3C)cc1Cl -10.6%
CC1Cc2cc(S(=O)(=O)CCC(=O)Nc3ccccc3F)ccc2N1C(=O)C1CC1 (stereo unspecified) -4.31%
Cc1cc(C)n(C(C)CC(=O)Nc2ccc(Cl)cc2C)n1 (stereo unspecified) 0.71%
CCOc1ccc(Sc2cc(C(=O)NCc3ccc(C)cc3)c3ccccc3n2)cc1 -5.7%
COc1ccc(Cn2ccc3nc(C)c(C(=O)Nc4cc(OC)c(OC)c(OC)c4)cc3c2=O)cc1 -7.49%
CCOc1ccccc1NS(=O)(=O)c1cc2[nH]c(=O)c(=O)[nH]c2cc1C -8.45%

outcome, inactive:
COc1cc(OC)cc(-c2nnc(SCC(=O)c3ccc([N+](=O)[O-])cc3)o2)c1
CCCCc1nn2c(=O)cc(COC(=O)c3ccc4c(c3)OCO4)nc2s1
CC1=C(C(=O)Nc2ccccc2)C(C(C)C)n2nc(SCc3ccccc3C)nc2N1 (stereo unspecified)
CN(C)CCN(Cc1ccccc1)S(=O)(=O)c1csc(C(N)=O)c1
CCn1c(C)c(C)c2cc(C(=O)N3CCN(c4ccccc4)CC3)ccc21
CCCn1cnc2cc(NC(=O)c3cc(OC)c(OC)c(OC)c3)ccc21
COc1ccc(CCNC(=O)c2ccc3c(c2)nc2n3CCCCC2)cc1OC
Cc1ccc(-c2nnc3c4ccccc4c(-c4ccccc4)nn23)cc1
CCOc1ccccc1C1C(C(=O)Nc2ccccc2)=C(C)Nc2nc(-c3ccccc3)nn21 (stereo unspecified)
CC1CCC(NC(=O)c2ccc3c(c2)N(Cc2ccccc2F)C(=O)c2ccccc2S3(=O)=O)CC1 (stereo unspecified)
CCOc1ccccc1CNCc1c(C(=O)O)n(Cc2ccccc2)c2cc(OC)ccc12
CCOC(=O)c1cc(C)n(CC2CCC(C(=O)Nc3cccc(C(C)=O)c3)CC2)c1C (stereo unspecified)
CCOc1c(CNCCSc2nnnn2C)cccc1OC
CCc1cccc(NC(=O)c2cc3c(=O)oc4ccc(C)cc4c3s2)c1
CCCCN(CC)C(=O)c1ccc2c(c1)NC(=O)c1ccccc1S2
CCc1cccc(NC(=O)C2CCCN2S(=O)(=O)c2ccc3nc(-c4ccccc4)[nH]c3c2)c1 (stereo unspecified)
CCc1ccc(NC(=O)Cn2c(=O)n(-c3cccc(OC)c3)c(=O)c3c(C)c(C(=O)N(C)C)sc32)cc1
O=S(=O)(NCC(c1cccs1)S(=O)(=O)c1ccccc1)c1ccccc1 (stereo unspecified)
COc1ccc(CNC(=O)c2ccc3c(c2)nc2n3CCCCC2)cc1
COc1cccc(CN2C(=O)C3(SCC(=O)N3c3ccc(C)c(Cl)c3)c3ccccc32)c1 (stereo unspecified)
Cc1cccc(C(=O)n2nc(C)c(S(=O)(=O)N3CCOCC3)c2C)c1
